Test results published in publication PMC4336329 (PLoS ONE, 2015).
Screen size: about 310,000 compounds; about 2,200 (0.71%) showed an effect of 50% or more. Effects have a minus sign here. The list shows a part of the results.

target: human ether-à-go-go-related gene (hERG) potassium channel (human, UniProt Q12809); experiment: primary screen, population patch clamp on CHO cells stably expressing hERG
Sequence (Q12809 whole entry, looked up): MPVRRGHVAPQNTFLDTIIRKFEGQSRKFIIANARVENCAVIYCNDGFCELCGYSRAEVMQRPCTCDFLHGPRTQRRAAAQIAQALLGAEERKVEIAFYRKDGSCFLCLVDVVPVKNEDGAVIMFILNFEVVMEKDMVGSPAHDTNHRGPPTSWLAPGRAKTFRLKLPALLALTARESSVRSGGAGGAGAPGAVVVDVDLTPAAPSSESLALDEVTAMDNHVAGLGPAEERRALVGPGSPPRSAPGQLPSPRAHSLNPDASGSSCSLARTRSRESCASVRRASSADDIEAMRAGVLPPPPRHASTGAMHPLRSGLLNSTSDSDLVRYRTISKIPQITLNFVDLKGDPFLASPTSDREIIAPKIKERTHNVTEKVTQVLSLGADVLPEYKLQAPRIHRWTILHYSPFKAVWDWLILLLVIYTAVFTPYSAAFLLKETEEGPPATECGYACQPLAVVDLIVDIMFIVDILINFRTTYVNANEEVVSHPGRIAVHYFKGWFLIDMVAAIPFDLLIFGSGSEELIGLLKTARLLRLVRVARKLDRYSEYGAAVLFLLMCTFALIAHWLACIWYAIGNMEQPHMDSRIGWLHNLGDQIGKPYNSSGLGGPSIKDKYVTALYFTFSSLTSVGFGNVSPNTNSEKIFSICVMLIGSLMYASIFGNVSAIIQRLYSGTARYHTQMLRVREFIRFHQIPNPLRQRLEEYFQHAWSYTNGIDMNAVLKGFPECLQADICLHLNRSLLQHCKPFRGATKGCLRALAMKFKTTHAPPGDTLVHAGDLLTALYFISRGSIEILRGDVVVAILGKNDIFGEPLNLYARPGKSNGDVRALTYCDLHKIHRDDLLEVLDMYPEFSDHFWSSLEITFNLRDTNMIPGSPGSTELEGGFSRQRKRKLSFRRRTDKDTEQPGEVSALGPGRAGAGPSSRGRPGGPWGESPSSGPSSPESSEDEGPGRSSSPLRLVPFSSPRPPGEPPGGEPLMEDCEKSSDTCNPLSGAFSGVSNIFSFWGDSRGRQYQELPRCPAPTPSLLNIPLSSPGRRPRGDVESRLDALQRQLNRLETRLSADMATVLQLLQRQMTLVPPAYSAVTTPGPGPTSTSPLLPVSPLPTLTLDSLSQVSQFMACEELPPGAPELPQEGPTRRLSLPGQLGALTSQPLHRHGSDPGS

SMILES	hERG current change (%, negative = inhibition) at 1uM
COC(=O)c1ccc(O)c(Sc2cc(C(=O)OC)ccc2O)c1	16.3%
CCOC(=O)c1c(C)nc2ccccc2c1C.Cl	1.33%
Cc1ccc(C)c(OCC(=O)Nc2ccc3c(c2)OCO3)c1C	-2.9%
CCOc1ccc2[nH]cc(C(=O)O)c(=O)c2c1	6.23%
COc1ccccc1N1CCN(C(c2ccccc2)c2nnnn2CCc2ccccc2)CC1.Cl (stereo not drawn)	14.8%
O=C(Nc1ccc(Cl)cn1)c1cc2c(s1)-c1ccccc1OC2	11.1%
COc1ccc(C2C(C(=O)Nc3cc(C)on3)c3ccccc3C(=O)N2C)cc1OC (stereo not drawn)	5.64%
CN1CCN(c2ccc(S(=O)(=O)N3CCCCC3)cc2NC(=O)c2ccc(C#N)cc2)CC1	2.16%
NC(=O)CCCc1nc(-c2ccccc2Cl)no1	3.84%
CN(Cc1cccnc1)Cc1cn(C)nc1-c1ccc(Oc2ccccc2)cc1	-0.121%
Cc1ccc(C)c(NC(=O)/C(C#N)=C/c2ccc(Sc3nncn3C)c([N+](=O)[O-])c2)c1	6.51%
COc1ccc(-c2nnc(Nc3nc4c(OC)cccc4s3)o2)c(OC)c1	11.4%
O=C1C(=O)N(CCCn2ccnc2)C(c2ccc(Br)cc2)/C1=C(\O)c1ccc2c(c1)OCCO2 (stereo not drawn)	16.4%
COc1cc(OC)c(OC)cc1/C=N/NC(=O)CCc1c(C)n[nH]c1C	9.23%
CC(C)N(Cc1ccc(F)cc1)C(=O)c1cc2ccccc2oc1=O	14%
O=C(CN1CCC(O)(c2ccc3c(c2)OCO3)CC1)N1CCOCC1	14.5%
COc1ccccc1C(=O)N/C(=C\c1cn(S(=O)(=O)N(C)C)c2ccccc12)C(=O)NCCN1CCOCC1	12.8%
CCCC(=O)NC(=S)Nc1ccccc1N1CCOCC1	11.1%
O=C(NCc1ccccn1)c1ccc(OC2CCN(Cc3ccc(Cl)s3)CC2)cc1	7.77%
COc1ccc(Cl)cc1CN1CCN(c2nc(C)cc(C)c2C#N)CC1	5.78%
COC(=O)C1=C(C)NC(=O)/C1=C\c1cc(C)n(-c2ccccc2C)c1C	11.8%
CCOC(=O)N1CCN(S(=O)(=O)c2cccc3cccnc23)CC1	5.5%

SMILES	hERG current change (%, negative = inhibition) at 1uM
O=C(CCc1ccccc1F)N1CCN(c2ccccc2)CC1	18.3%
O=C(NCCOc1ccccc1)C1CCC(=O)N(CCc2ccccn2)C1 (stereo not drawn)	9.49%
Oc1ccc(-c2csc(-c3cccnc3)n2)cc1O	12.7%
Cc1ccccc1CN1CCN(S(=O)(=O)c2ccc(Cl)s2)CC1	6.38%
Cn1c(SCC(=O)Nc2ccccc2F)nnc1-c1cccnc1	-0.959%
OC(C#CCN1CCOCC1)(c1ccccc1)C1CCCCC1 (stereo not drawn)	10.3%
Cc1c(Cl)cccc1NC(=O)NCc1ccccn1	2.71%
COc1ccccc1-c1cc(C(=O)NCc2ccc(Cl)cc2)no1	6.11%
COc1cc([N+](=O)[O-])cc(/C=N/NC(=O)CSc2nnc(-c3ccccc3)n2C)c1O	5.04%
COc1ccc(CNC(=O)COc2ccc(S(=O)(=O)N3CCOCC3)cc2C)cc1	1.02%
C/C(=N/NC(=O)CNC(=O)/C=C/c1ccco1)c1ccc(Cl)cc1	6.5%
CC1(C)C[C@@H]2C[C@@](C)(CN2C(=O)c2cc(COc3cccc(C(F)(F)F)c3)on2)C1	11.9%
CC(C)c1ccc(NC(=O)C2CCCN(S(=O)(=O)c3ccc4c(c3)C(C)(C)C(=O)N4C)C2)cc1 (stereo not drawn)	7.73%
COc1cc(OC)c(NC(C)C(=O)NCc2ccccc2)cc1Cl (stereo not drawn)	14.3%
CCN(CC(=O)Nc1c(F)cccc1F)C(=O)Cn1c(=O)cnc2ccccc21	11%
O=C(COc1ccccc1)OCC(=O)c1ccc(O)cc1O	15.1%
CC1(C2CC2)NC(=O)N(CC(=O)N2CCN(S(=O)(=O)c3ccc(F)c(F)c3)CC2)C1=O (stereo not drawn)	3.97%
Cc1cc(C(F)(F)F)c(C#N)c(SCC(=O)NC(C)(C)C)n1	10.5%
Nc1ccc(C#Cc2ccc3c(=O)c4ccccc4oc3c2)cc1	15.7%
COc1ccc(N2CCN(Cc3cc(=O)oc4ccc5ccccc5c34)CC2)cc1	9.27%
Cc1ccc2c(C)c(C(=O)N3CCN(Cc4ccccn4)CC3)oc2c1C	2.22%
CCN(CC)S(=O)(=O)c1ccc(OC)c(NC(=O)c2ccc3c(c2)OCO3)c1	10.6%

SMILES	hERG current change (%, negative = inhibition) at 1uM
COc1cc2nc(COc3ccc(C#N)cc3)n(CC#N)c(=O)c2cc1OC	-1.23%
Cc1ccc(Nc2nc(Cl)nc(N(C)C#N)n2)cc1	8.56%
O=C(NC(Cc1ccccc1)C(=O)O)c1ccc(S(=O)(=O)N2CCCCC2)cc1 (stereo not drawn)	22%
COc1ccc(CCNC(=O)Cc2ccc(Cl)cc2)cc1OC	16.9%
Cc1cccc(OCCCC(=O)NCC(=O)Nc2cccc(C)c2C)c1	12%
Cc1cc2ncn(C3CC(=O)N(C)C3=O)c2cc1C (stereo not drawn)	15.3%
CCCC(=O)Nc1ccc2oc(=O)ccc2c1	7.53%
CC(C)(CO)NCc1c(OCc2ccc(Cl)cc2)ccc2ccccc12.Cl	-34.1%
CCCN1CCN(C(=O)c2nn(-c3ccc(OC)cc3)c(=O)c3c2c2ccccc2n3C)CC1	6.28%
C/C(=N\N=C(/N)c1nonc1N)c1ccc2c(c1)OCO2	17.1%
COC(=O)C1=NNCC12CC(=O)N(c1ccc(Br)cc1)C2=O (stereo not drawn)	8.71%
O=C(NCc1cccnc1)c1cccc2c1C(=O)N(C1CCCCC1)C2	-3.58%
COc1cccc(C(=O)NCCS(=O)(=O)NCCCc2ccccc2)c1	-1.29%
Cl.N=c1sccn1CC(=O)Nc1cccc(S(N)(=O)=O)c1	13.4%
Cc1ccn2c(C(=O)N/N=C/c3ccc(CNC(=O)C(=O)Nc4ccc(C)c(C)c4)o3)c(C)nc2c1	-3.81%
CC(C)C1C(=O)CC(c2ccccc2)NC1c1ccccc1 (stereo not drawn)	12.3%
Clc1ccc2nc(-c3ccc(Br)s3)cn2c1	7.35%
Cc1cc(C)cc(C(=O)NC(CC(N)=O)c2ccc(NC3CCCCC3)c([N+](=O)[O-])c2)c1 (stereo not drawn)	1.9%
CCC1(CC)C(=O)NC(=NCCc2c[nH]c3ccccc23)NC1=O	13.6%
O=C(CCCNC(=O)/C(=C/c1ccc(Br)cc1)NC(=O)c1ccccc1)OCc1ccccc1	-2.58%
COc1ccc(CCN(Cc2cc3cc(C)c(C)cc3nc2Cl)C(=O)C2CC2)cc1	17.8%
Cc1ccc(CSc2nsc(C)c2C#N)cc1	16.4%

SMILES	hERG current change (%, negative = inhibition) at 1uM
Cn1c2ccccc2c2ncn(Cc3ccco3)c(=O)c21	14.4%
N#Cc1ccccc1S(=O)(=O)N1CCN(CC(=O)NC(=O)NC2CCCCC2)CC1	7.59%
O=C(NCCCCNC(=O)c1ccco1)c1ccco1	17.4%
CCOc1ccc(N2C(=O)CC(N(CCc3ccccc3)C(=O)/C=C/C(=O)O)C2=O)cc1 (stereo not drawn)	14.7%
CCCOC1CCCN(Cc2nc(-c3cnccn3)no2)C1 (stereo not drawn)	11.6%
O=C(Cn1ccn(-c2ccc(F)c(Cl)c2)c(=O)c1=O)NCCc1ccccc1	10.7%
COC(=O)N/N=C/c1c(C)nn(-c2cccc(Cl)c2)c1Cl	3.99%
Cc1ccc(/C=C/C(=O)c2cc(Br)ccc2OC(=O)c2ccco2)cc1	10.1%
Cc1onc(-c2c(F)cccc2Cl)c1C(=O)Nc1nc2c(s1)CCCC2	-4.32%
CN(C)C1(CNC(=O)c2cc(S(=O)(=O)N3CCOCC3)c(Cl)cc2Cl)CCCCC1	3.52%
CCc1ccc(N/C(N)=N/c2nc(CSc3ccccn3)cc(=O)[nH]2)cc1	4.02%
O=C(COc1ccc2ccc(=O)oc2c1)Nc1ccc(CCO)cc1	9%
Cc1ccc(C(=O)NNC2=NCCC2)cc1	3.85%
COc1cc(C)nc(NC(=S)N(C)C(=O)c2ccccc2)n1	3.27%
COCc1nnc(SCC(=O)Nc2cccc(Cl)c2C)n1-c1ccccc1	-11%
COc1ccc(-c2nc(CN3CCC(C(=O)NCC4CCCO4)CC3)c(C)o2)cc1OC (stereo not drawn)	13.5%
O=C(NCCS(=O)(=O)N1CCN(c2ccccc2)CC1)c1cccs1	8.28%
COc1ccc(-c2cc(=O)c3c(O)cc(OC4OC(COC5OC(C)C(O)C(O)C5O)C(O)C(O)C4O)cc3o2)cc1O (stereo not drawn)	10.9%
CNS(=O)(=O)c1ccc(C)cc1	6.32%
COc1cc(NS(=O)(=O)c2ccc(NC(=O)c3cccs3)cc2)nc(OC)n1	13.9%
COc1cc(O)c(C(CC(=O)N2CCN(c3ccccc3)CC2)c2ccc(N(C)C)cc2)c(OC)c1 (stereo not drawn)	16.2%
